From PubChem BioAssay AID720542 (National Center for Advancing Translational Sciences (NCATS), 2013)
About 740 (0.21%) of roughly 360,000 compounds were called active. Inconclusive means that the source gave no clear call. Such entries were picked first, then a sample of the others. Calls follow the shape of the dose curve; as a rule, active = well fitted inhibition curve with a large enough effect; inconclusive = small, poorly fitted or top-dose-only effect; inactive = no such curve, though single readings can be large or run the other way. Potencies of inconclusive entries are left out as doubtful fits.

test system: Plasmodium falciparum AMA1 (3D7) - RON2 peptide interaction; assay: qHTS for Inhibitors of AMA1-RON; Towards Development of Antimalarial Drug Lead: Primary Screen; details: AlphaScreen AMA1-biotinylated RON2 peptide binding; activity change, negative = inhibition: at 58.2 µM (top of the series) unless noted; also: nearly all actives have a fitted effect of over 45% in size;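 as to activity change, negative = inhibition: 0% = vehicle wells and -100% = peptide control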
Summary of the method: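 AMA1 (3D7) with his tag at 25 nM final met compounds first, then biotinylated RON2 peptide at 25 nM; detection used donor plus acceptor beads, 10 µg/mL apiece, read by AlphaScreen after 30 min at room temperature.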
Potency is read from the fitted curve at half-maximal effect; tags tell the direction and shape of the fitted curve.

Row | SMILES | Potency | activity change, negative = inhibition
1 | O=C(C=P(c1ccccc1)(c1ccccc1)c1ccccc1)c1ccccc1-c1ccccc1C(=O)C=P(c1ccccc1)(c1ccccc1)c1ccccc1 | inconclusive [inhibitor, partial curve, poor fit] | –
2 | COc1ccc(C=C(C(=O)c2ccccc2)C(=O)c2ccccc2)cc1 | inactive | –
3 | CCOC(=O)CN(Cc1sccc1C)C(=O)Nc1ccc(OC)cc1OC | inconclusive [inhibitor, partial curve] | –
4 | CC(CNc1ccc(Cl)cc1)(CNc1ccc(Cl)cc1)[N+](=O)[O-] | inconclusive [inhibitor, single point] | –
5 | COc1ccc(CNCC(O)(c2ccc(Cl)cc2)c2ccc(Cl)cc2)cc1 | inactive | –
6 | CN(C)c1ccc(/C=C/C=C2/SC(=S)N(c3ccccc3)C2=O)cc1 | active: 2.51 µM | –
7 | O=[N+]([O-])c1ccccc1/C=C/CN1CCSCC1 | inconclusive [inhibitor, single point] | –
8 | N/C(=N\OC(=O)c1cc(Br)ccc1Cl)c1cccnc1 | inconclusive [inhibitor, single point] | –
9 | C=CCNC(=O)c1ccc2nc(-c3ccccc3)c(-c3ccccc3)nc2c1 | inactive | –
10 | CCc1ccc(C(=O)NNc2ccc(C)c(Cl)c2)cc1 | inconclusive [inhibitor, single point] | –
11 | COc1ccc(N2CC(C(=O)Nc3cccnc3)CC2=O)cc1 (stereo not drawn) | inactive | –
12 | COC1CCCCC1Nc1ccc(C)c(C)c1 (stereo not drawn) | inconclusive [inhibitor, single point] | –
13 | O=[N+]([O-])c1ccc(OCC(O)CNC2CCCC2)cc1 (stereo not drawn) | inconclusive [inhibitor, single point] | –
14 | O=C(CN1C(=O)NC(c2ccccc2)(c2ccccc2)C1=O)N1CCN(c2ccccc2F)CC1 | inconclusive [inhibitor, full curve, poor fit] | –
15 | CCOc1ccc(/C=N/N(C)c2ccccc2)cc1OC | inconclusive [inhibitor, single point] | –
16 | COC(=O)c1ccc2nc(-c3ccco3)c(Cc3ccc(OC)cc3C)n2c1 | inconclusive [inhibitor, single point] | –
17 | COc1ccc(Cc2nnc(NS(=O)(=O)c3ccccc3)s2)cc1 | inconclusive [inhibitor, partial curve, poor fit] | –
18 | N#CC(c1cccc(Cl)c1)c1ccc2c(C(F)(F)F)cc(C(F)(F)F)nc2n1 (stereo not drawn) | inconclusive [inhibitor, partial curve] | –
19 | CCN(Cc1ccncc1)Cc1ccc(OC)c(OC)c1 | inconclusive [inhibitor, single point] | –
20 | Cc1cc(NC(=O)c2ccc(Cn3nc(C)c(Br)c3C)o2)no1 | inconclusive [inhibitor, full curve, poor fit] | –
21 | O=C1CN(C(=O)CNCc2ccc(Cl)cc2)c2ccccc2N1 | inconclusive [inhibitor, single point] | –
22 | CCc1ccc(NC(=O)C(C)OC(=O)c2ccc(NS(=O)(=O)c3ccc(C)c([N+](=O)[O-])c3)cc2)cc1 (stereo not drawn) | inactive | –

Row | SMILES | Potency | activity change, negative = inhibition
23 | O=C(Nc1cccc(Cl)c1)N1CCN(c2ncccn2)CC1 | inactive | –
24 | S=C(Nc1ccc2c(c1)OCCO2)Nc1ccccc1Cl | inactive | –
25 | OCCn1c(-c2ccc3c(c2)OCO3)csc1=Nc1ccccc1 | inconclusive [inhibitor, partial curve] | –
26 | COc1cc(NCC2COc3c(ccc(OC)c3OC)C2=O)c([N+](=O)[O-])cc1OC (stereo not drawn) | inconclusive [inhibitor, partial curve] | –
27 | Cc1ccccc1CN1[C@@H](CC2CCCCC2)COCCS1(=O)=O | inactive | –
28 | COc1ccc(N2CCN(C(=O)c3cc4c(-c5ccc(Cl)cc5)nn(C)c4s3)CC2)cc1 | inconclusive [inhibitor, single point] | –
29 | COc1cc(O)c(C(CC(=O)N2CCN(c3ccccc3)CC2)c2ccc(N(C)C)cc2)c(OC)c1 (stereo not drawn) | inconclusive [inhibitor, single point] | –
30 | c1ccc(SC23CCCCN(CCC2)C32OCCO2)cc1 (stereo not drawn) | inconclusive [inhibitor, partial curve] | –
31 | O=C(COc1ccc(Br)cc1)N1CCN(Cc2c[nH]c3ccccc23)CC1 | inconclusive [inhibitor, partial curve] | –
32 | CNc1cccccc1=S | inconclusive [inhibitor, partial curve] | –
33 | O=C1NC(=Nc2ccc(O)cc2)S/C1=C/c1ccco1 | inactive | –
34 | COc1ccc(OC)c(NC(=O)C(C)Oc2ccc(Br)cc2)c1 (stereo not drawn) | inconclusive [inhibitor, partial curve] | –
35 | CCCCN(CC)S(=O)(=O)c1ccc(C(=O)N(CCCN(C)C)c2nc3cc(C)cc(C)c3s2)cc1 | inconclusive [inhibitor, partial curve] | –
36 | CN(C)c1ccc(/C=C/C=C2/C(=O)NC(=O)N(c3ccccc3)C2=O)cc1 | inconclusive [inhibitor, full curve] | –
37 | CCc1ccc(C(O)(CC(C)C)C(CN2CCOCC2)c2ccccc2)cc1 (stereo not drawn) | – | inconclusive: -11.5% [inhibitor]
38 | Clc1cccc(CN2CCN(Cc3ccco3)CC2)c1 | inconclusive [inhibitor, single point] | –
39 | CCN1C(=O)/C(=C/C2=Cc3ccccc3OC2C)SC1=S (stereo not drawn) | inconclusive [inhibitor, partial curve, poor fit] | –
40 | CCOc1ccc2nc(SCC(=O)NCc3ccco3)sc2c1 | inconclusive [inhibitor, partial curve] | –
41 | COc1ccc(CN2CCN(c3ccccn3)CC2)cc1OCc1ccccc1 | inconclusive [inhibitor, single point] | –
42 | COc1ccc(NC(=O)COC(=O)CCCc2c[nH]c3ccccc23)cc1 | inconclusive [inhibitor, single point] | –
43 | CCOC(=O)C1CCCN(S(=O)(=O)c2ccc(Br)s2)C1 (stereo not drawn) | inconclusive [inhibitor, partial curve] | –
